PubChem BioAssay AID504466 (National Center for Advancing Translational Sciences (NCATS), 2011)
Out of some 330,000 compounds screened, about 4,200 (1.3%) were called active. Inconclusive results, whose numbers are uncertain, are shown with a selection of clear calls. Calls come from the whole dose curve; as a rule, active = well fitted activation curve with a large enough effect; inconclusive = small, poorly fitted or top-dose-only effect; inactive = no such curve, though single readings can be large or run the other way. Where the call is inconclusive, the potency comes from a doubtful curve fit.

Assay: qHTS screen for small molecules that induce genotoxicity in human embryonic kidney (HEK293T) cells expressing luciferase-tagged ELG1; note: nearly all actives have a fitted effect of over 60% in size; for activity change, positive = activation: % of control where 0% means no effect
Conditions: HEK293T ELG1-luciferase reporter, luminescence, 16 h; series mostly up to 46 µM; activity change, positive = activation: at the top concentration
In short: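 ELG1-luciferase HEK293T cells, 2,000/well; compound pinned in; 16 hr, 37 °C, 5% CO2; ONE-Glo, 30 min RT; luminescence on CCD imager.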
Potency is the fitted concentration of half-maximal effect; tags give direction and shape of the fitted curve.

| SMILES | Potency | activity change, positive = activation |
| --- | --- | --- |
| COc1cccc(CNc2nc3ccccc3n2C)c1O | active: 9.2 µM | – |
| COc1ccccc1NC(=S)N(Cc1ccco1)Cc1cc2cc(C)c(C)cc2[nH]c1=O | – | inactive: 6.61% |
| CCOc1ccc(NC(=O)Nc2cc(C(C)C)ccc2C)cc1 | inconclusive: 32.6 µM [activator, partial curve, poor fit] | – |
| O=C(NCCc1cccs1)c1ccc(Cl)c(Cl)c1 | inconclusive: 2.91 µM [activator, full curve, poor fit] | – |
| COC(=O)c1sc(NC(=S)NC(=O)c2ccccc2C)nc1C | inconclusive: 14.6 µM [activator, partial curve, poor fit] | – |
| Cc1c(C(=O)N2CCN(c3ccccn3)CC2)cccc1[N+](=O)[O-] | inconclusive: 29.1 µM [activator, partial curve, poor fit] | – |
| Cc1cc(N2CCN(C)CC2)ccc1NC(=O)c1cccc(S(=O)(=O)N2CCc3ccccc3C2)c1 | – | inactive: 2.84% |
| CCCCc1nc2cc(C(=O)N3CCC(OCCOC)CC3)ccc2o1 | inconclusive: 13 µM [activator, partial curve, poor fit] | – |
| COc1cccc(/C=C2\SC(N)=NC2=O)c1OS(=O)(=O)c1ccccc1 | inconclusive: 29.1 µM [activator, partial curve, poor fit] | – |
| COC(=O)c1cn(CC(=O)NCc2ccco2)c2ccccc12 | inconclusive: 20.6 µM [activator, partial curve, poor fit] | – |
| O=C(Nc1nc2ccccc2[nH]1)NC1CCCCC1 | active: 2.59 µM | – |
| CCc1c(C)sc(NC(=S)N2CCN(S(C)(=O)=O)CC2)c1C(=O)OC | inconclusive: 23.1 µM [activator, partial curve, poor fit] | – |
| CCN(CC)C(=O)C(=O)Nc1ccc(F)c(Cl)c1 | inconclusive: 20.6 µM [activator, single point] | – |
| CCOC(=O)C1(Cc2ccccc2Cl)CCN(S(=O)(=O)N(C)C)CC1 | – | inactive: -4.01% |
| CN1C(C(=O)Nc2ccccn2)=C(O)c2ccccc2S1(=O)=O | inconclusive: 32.6 µM [activator, partial curve, poor fit] | – |
| COc1ccc2c(c1)C(=O)CC(c1ccccc1F)O2 (stereo unspecified) | inconclusive: 8.2 µM [activator, partial curve, poor fit] | – |
| COc1ccc2nc(NC(=O)c3sc4nc(C)cc(C)c4c3N)sc2c1 | inconclusive: 0.206 µM [activator, full curve, poor fit] | – |
| CNC(=O)c1c(Cl)cnn1-c1ccc(C)cc1 | inconclusive: 23.1 µM [activator, partial curve] | – |
| O=C(NCc1ccccc1)c1noc2c1CCCC2 | inconclusive: 23.1 µM [activator, single point] | – |
| Cc1ccnc(N/N=C/c2ccccc2)n1 | inconclusive: 10.3 µM [activator, partial curve] | – |
| COC(=O)N/N=C/c1ccccc1 | – | inactive: 10.2% |
| Cc1ccc(NC(=O)Nc2cccs2)nc1 | inconclusive: 13 µM [activator, partial curve, poor fit] | – |
| CCN1CCN(/C=N/c2nc3c(s2)CCCC3)CC1 | active: 0.92 µM | – |
| Cc1cccc(CSc2nc3c(cc2C#N)CCC3)c1 | – | inactive: 12.6% |

| SMILES | Potency | activity change, positive = activation |
| --- | --- | --- |
| O=C(NC(=S)/C(=C1\CCCCCN1)[N+](=O)[O-])c1ccccc1 | active: 0.231 µM | – |
| O=C(NC1CCCCC1)c1cc(-c2ccco2)on1 | inconclusive: 18.4 µM [activator, partial curve, poor fit] | – |
| CC(C)(C)c1ccc(-c2nc(-c3ccncc3)no2)cc1 | inconclusive: 0.82 µM [activator, full curve] | – |
| Cc1ccc(S(=O)(=O)N2CCCC2C(=O)NCc2ccncc2)cc1 (stereo unspecified) | – | inactive: -8.6% |
| COc1cc2c(cc1OC)-c1cc(Nc3cccc(C)c3)nc(=O)n1CC2 | inconclusive: 20.6 µM [activator, partial curve, poor fit] | – |
| COc1cc(OC)cc(C(=O)NC(=S)N(Cc2ccccc2)C(C)C)c1 | – | inactive: -11.2% |
| Cc1cc(C(=O)CS(=O)(=O)c2ccc(F)cc2)cc(C)c1O | inconclusive: 20.6 µM [activator, partial curve, poor fit] | – |
| CC(=O)c1ccc(OCc2cc(C(=O)NCCc3ccc(Cl)cc3)no2)cc1 | inconclusive: 32.6 µM [activator, partial curve, poor fit] | – |
| O=C(COC(=O)Cc1ccc(Br)cc1)Nc1ccc(Cl)cn1 | – | inactive: -1.93% |
| Cc1c(C)n(-c2ccccc2)c2ncnc(NCCN(C)C)c12 | – | inactive: -0.546% |
| O=C(C1CCC1)N1CCN(c2ccc(Cl)cc2)CC1 | – | inactive: -0.719% |
| Cc1ccc(S(=O)(=O)NNC(=O)c2cnn(-c3ccc(Cl)cc3)c2C(F)(F)F)cc1 | – | inactive: -5.12% |
| COc1ccccc1NC(=O)CSc1nnc(-c2ccc(C)cc2)o1 | inconclusive: 9.2 µM [activator, partial curve] | – |
| COc1ccc(Cl)cc1C(=O)Nc1nc2ccccc2[nH]1 | inconclusive: 0.146 µM [activator, partial curve, poor fit] | – |
| Cn1c(/C=C(\C#N)C(N)=S)ccc1-c1ccc(Br)cc1 | inconclusive: 29.1 µM [activator, partial curve, poor fit] | – |
| Cn1c(=O)n(C)c2cc(NS(=O)(=O)c3ccccc3)ccc21 | active: 18.3 µM | – |
| O=C(CCc1ccc(S(=O)(=O)NC2CCCCC2)cc1)NCc1ccccn1 | inconclusive: 20.6 µM [activator, partial curve, poor fit] | – |
| CN1CCN(Cc2nc3ccccc3c(=O)n2Cc2nc(-c3cccc([N+](=O)[O-])c3)cs2)CC1 | – | inactive: -5.16% |
| COc1cc2c(cc1NC(=O)c1cccnc1)oc1ccccc12 | inconclusive: 12.6 µM [activator, partial curve, poor fit] | – |
| COc1cccc(NC(=O)C(=O)N/N=C(\C)CC(=O)Nc2ccc(NC(C)=O)cc2)c1 | inconclusive: 18.3 µM [activator, partial curve] | – |
| CC/C(=N/Nc1cccc(Cl)c1)c1cnnc(SC)n1 | inconclusive: 23.1 µM [activator, single point] | – |
| O=C(O)c1ccc2nc(-c3ccccc3)sc2c1 | inconclusive: 0.259 µM [activator, partial curve, poor fit] | – |
| CCCOc1ccc(-c2cn3ccccc3n2)cc1[N+](=O)[O-] | inconclusive: 8.2 µM [activator, partial curve] | – |
| CCCc1cc(C(=O)NCCc2ccccc2)no1 | active: 10.3 µM | – |

| SMILES | Potency | activity change, positive = activation |
| --- | --- | --- |
| Cc1ccc(-n2nnc(-c3nccs3)n2)cc1 | active: 0.231 µM | – |
| COc1ccc(CNC(=O)COC(=O)c2ccccc2OCC(=O)Nc2ccc(SC(F)F)cc2)cc1 | inconclusive: 16.4 µM [activator, single point] | – |
| CCNC(=O)NC(=O)C(C)Oc1ccc(Br)cc1Br (stereo unspecified) | inconclusive: 16.4 µM [activator, partial curve, poor fit] | – |
| CS(=O)(=O)Nc1ccc(C2=NN(S(C)(=O)=O)C(c3ccc4c(c3)OCO4)C2)cc1 (stereo unspecified) | inconclusive: 18.4 µM [activator, partial curve] | – |
| COc1ccc(/C=C/C(=O)c2ccc[nH]2)cc1OC | active: 20.6 µM | – |
| Cc1ccc(CC(=O)N/N=C/c2ccc3c(c2)OCO3)cc1 | inconclusive: 18.3 µM [activator, partial curve, poor fit] | – |
| COc1ccc(NC(=S)N2CCC(c3ccccc3)C2)cc1 (stereo unspecified) | active: 9.2 µM | – |
| CC(C)c1ccc(Nc2nnc(SCC(=O)Nc3ncc(S(=O)(=O)c4ccc([N+](=O)[O-])cc4)s3)s2)cc1 | inconclusive: 5.17 µM [activator, partial curve] | – |
| Cc1ccc2c(c1)NC(=O)c1cccnc1N2 | inconclusive: 20.6 µM [activator, partial curve, poor fit] | – |
| N#C/C(=C/c1ccc(N2CCCCCC2)o1)c1cccc(F)c1 | active: 5.8 µM | – |
| COc1ccc(-c2cc(-c3ccc(Cl)cc3)n[nH]2)c(O)c1 | inconclusive: 5.17 µM [activator, partial curve] | – |
| Cc1nn(-c2ccccc2)c(C)c1C(=O)NCCc1ccccc1 | inconclusive: 6.31 µM [activator, partial curve] | – |
| Cc1cccc(C(=O)Nc2cccc(OC(=O)c3cccc(C)c3)c2)c1 | inconclusive: 18.4 µM [activator, single point] | – |
| O=C(Nc1ccc(-c2nc3cccnc3s2)cc1)c1cccnc1Cl | active: 0.82 µM | – |
| Cc1cc(C)c(S(=O)(=O)N2CC=C(c3ccccc3)CC2)c(C)c1 | inconclusive: 11.6 µM [activator, single point] | – |
| C(=N/N1CCN(c2ccccc2)CC1)/c1cccs1 | active: 14.6 µM | – |
| Cc1cc2nc(-c3ccc(NC(=O)c4cccnc4)cc3)oc2cc1C | inconclusive: 2.31 µM [activator, full curve] | – |
| CNc1nc(C)nc(N/N=C/c2ccccc2)n1 | inconclusive: 23.1 µM [activator, partial curve, poor fit] | – |
| O=C(CC(=O)c1ccccc1)Nc1cccnc1Cl | inconclusive: 23.1 µM [activator, single point] | – |
| Cc1ccc(-c2nc(NC(=O)CSc3nnc(C)s3)ns2)cc1 | – | inactive: 3.45% |
| CCOc1ccc(-c2csc3nc[nH]c(=O)c23)cc1 | inconclusive: 18.3 µM [activator, partial curve, poor fit] | – |
| CC1CCC/C(=N/Nc2nc3ccccc3s2)C1 (stereo unspecified) | inconclusive: 4.11 µM [activator, full curve] | – |
| COC(=O)c1cc(-c2ccc(OC)cc2)n[nH]1 | inconclusive: 20.6 µM [activator, partial curve] | – |
